Screen size: about 45,000 compounds; about 200 (0.44%) were called active. About 7% were inconclusive and are not listed. Calls come from the whole dose curve; as a rule, active = well fitted activation curve with a large enough effect; inconclusive = small, poorly fitted or top-dose-only effect; inactive = no such curve, though single readings can be large or run the other way. This is one part of the list.
Assay: qHTS of TDP-43 Inhibitors: NCGC Sytravon Library Screen; note: nearly all actives have a fitted effect of over 55% in size; for growth rescue (activation): 0% is about no effect
Details: yeast TDP-43 toxicity rescue, BacTiter-Glo growth, 24 h; series mostly up to 46.1 µM; growth rescue (activation): at the top concentration
Summary of the method: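 TDP-43-expressing yeast, pregrown in raffinose, seeded at OD600 0.02 in galactose medium with compound for 24 hr at 30 deg C. Growth read by BacTiter-Glo luminescence, so rescue of toxicity appears as activation.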
Potency is the fitted concentration of half-maximal effect.

Row | Compound | growth rescue (activation) | Potency
1 | CCCOc1ccc(/C=N\NC(=O)CCc2n[nH]c(=O)[nH]c2=O)cc1OC | inactive: 8.21% | 
2 | COc1ccc(/C=C(\NC(=O)c2ccccc2Cl)C(=O)NCCCC(=O)O)cc1 | inactive: 7.13% | 
3 | Cc1ccc(NC(=O)CN(C)C(=O)Cc2ccc(Cl)c(Cl)c2)cc1 | inactive: -15.3% | 
4 | COc1ccc(OCc2nnc3n2N=C(c2ccccc2)C(CC(=O)O)S3)cc1 (stereo unspecified) | inactive: -1.05% | 
5 | COc1ccc(OCC(=O)Nn2c(-c3cccc(OC)c3)nc3ccccc3c2=O)cc1 | inactive: -8.56% | 
6 | CC(=O)NCc1ccc(S(=O)(=O)NC(C)CCc2ccccc2)cc1 (stereo unspecified) | inactive: -2.49% | 
7 | CCN(CC)CCCN1C(=O)C(=O)/C(=C(/O)c2ccccc2)C1c1cc(OC)ccc1OC (stereo unspecified) | inactive: 28.9% | 
8 | C=CCNC(=S)NC1CC(C)(C)NC(C)(C)C1 | inactive: 2.83% | 
9 | CCOc1ccccc1NC(=O)COC(=O)COc1c(Cl)cc(Cl)c2ccc(C)nc12 | inactive: 14.8% | 
10 | COc1cccc(NC(=O)c2ccc3nc(C)c(N(C)Cc4ccc(NC(C)=O)cc4)n3c2)c1 | inactive: 8.72% | 
11 | CC(C)c1ccc(NC(=O)C2(C)Cc3c(-c4ccc(C(N)=O)cc4)ccnc3O2)cc1 (stereo unspecified) | inactive: 24.5% | 
12 | Fc1ccc(COc2ccc(-c3nnco3)cc2)c(Cl)c1 | inactive: 8.49% | 
13 | CCc1cc2c(CN3CCN(Cc4ccccc4)CC3)cc(=O)oc2cc1O | inactive: 2.12% | 
14 | Cc1c(CC(=O)NCCCCCC(=O)O)c(=O)oc2cc3occ(-c4ccccc4)c3cc12 | inactive: 8.74% | 
15 | COC(=O)c1cc2c(cc1NC(=O)CSCCc1ccccn1)OCO2 | inactive: 11.6% | 
16 | CC[n+]1ccc(C)c2cc(P(=O)(c3ccccc3)c3ccccc3)ccc21 | inactive: -33.2% | 
17 | COc1ccccc1-n1cc([C@@H]2C[C@H]3CN(c4ccccc4)C(=O)[C@]34CCCN24)cn1 | inactive: -7.66% | 
18 | COc1ccc(CC(=O)NNC(=O)c2ccco2)cc1OC | inactive: -19.7% | 
19 | CCn1c(/C=N/Nc2ccc(C(=O)O)cc2)nc2ccccc21 | inactive: -6.51% | 
20 | O=C(/C=C/c1ccc2c(c1)OCO2)NCc1ccc(F)cc1 | inactive: -6.79% | 
21 | COc1ccc(OCC(=O)O/N=C(\N)c2ccc(OC)c(OC)c2)cc1 | inactive: 29.6% | 
22 | COc1ccccc1CN(Cc1cccnc1)S(=O)(=O)c1ccc(-n2cnnn2)c(OC)c1 | inactive: 18.9% | 

Row | Compound | growth rescue (activation) | Potency
23 | COc1ccccc1-c1nc(SCC(=O)Nc2ccccc2)n[nH]1 | inactive: 0.83% | 
24 | COc1ccc(NC(=O)C/C(C)=N/NC(=O)c2ccccn2)c(OC)c1 | inactive: 12.4% | 
25 | CN1c2ccsc2/C(=N/Nc2ccccc2)CS1(=O)=O | inactive: -12% | 
26 | CC(C)(C)c1ccc(-c2nc(NC(=O)CSc3ncnc4sc5c(c34)CCCC5)ns2)cc1 | inactive: -4.03% | 
27 | CC1=Nc2ccccc2N=C(NC(=O)CSC(=S)N2CCCCC2)C1c1ccccc1 (stereo unspecified) | inactive: -6.91% | 
28 | CN(C)N1C(N)=C(C#N)C(c2ccc(F)cc2)C2=C1CCCC2=O (stereo unspecified) | inactive: 2.19% | 
29 | CCNC(=O)C1(C)CCCN(C(=O)CCc2cccs2)C1 (stereo unspecified) | inactive: 5.25% | 
30 | Cc1cccc(C)c1OCc1cc(C(=O)N2CCC[C@H]2C(N)=O)no1 | inactive: 13.6% | 
31 | O=C(CSC1=NC(=O)C(Cc2ccccc2)C(=O)N1)Nc1ncc(Br)cc1Br (stereo unspecified) | inactive: 6.45% | 
32 | Cc1ccc(C2C(C#N)=C(N)N(c3cccnc3)C3=C2C(=O)CCC3)c(C)c1 (stereo unspecified) | inactive: -8.92% | 
33 | CCc1ccccc1NC(=O)CNCC(=O)Nc1ccccc1CC | inactive: -17.6% | 
34 | Cc1ccc(NC(=O)COC(=O)Cc2csc(-c3cccc(F)c3)n2)cc1C | inactive: -29.4% | 
35 | Cc1cccc(C)c1NC(=O)c1ccc2sc([C@H]3C[C@H](O)[C@@H](CO)O3)nc2c1 | inactive: 5.04% | 
36 | COCCNC(=O)C(c1ccncc1)N(Cc1ccccc1)C(=O)Cn1nnc2ccccc21 (stereo unspecified) | inactive: -0.584% | 
37 | Cc1ccc2c(c1)N(CCCC(=O)Nc1cccc(C(F)(F)F)c1)C(=O)CO2 |  | inactive
38 | COC(=O)c1ccc(N2CCN(C)CC2)c(NC(=O)COc2cccc(C)c2)c1 | inactive: 11.4% | 
39 | O=C(N/N=C\c1ccc(-c2cccc(Cl)c2)o1)C(=O)NC1CCCC1 | inactive: -0.464% | 
40 | CCN(Cc1cccs1)C(=O)CN1CCN(S(=O)(=O)c2ccc3c(c2)OCCCO3)CC1 | inactive: 26.3% | 
41 | CCC1(CC)Cc2ccccc2-c2nc(CN(C)C)[nH]c(=O)c21 | inactive: -9.66% | 
42 | O=C(O)c1ccccc1CSc1nnc2c(n1)[nH]c1ccccc12 | inactive: 5.14% | 
43 | O=C(CCCC(=O)N(CC(=O)NC1CCCC1)c1cccc(F)c1)Nc1ccccn1 | inactive: 8.89% | 
44 | COCCNC(=O)C1Cc2c(-c3cccc(NC(C)=O)c3)ccnc2O1 (stereo unspecified) | inactive: 17.7% | 

Row | Compound | growth rescue (activation) | Potency
45 | Cc1cc(C)n2nc(SCC(=O)N3CCCC(C)C3)nc2n1 (stereo unspecified) | inactive: 10.9% | 
46 | CN(C(=O)COC(=O)C12CC3CC(CC(Cl)(C3)C1)C2)c1ccccc1 | inactive: -1.54% | 
47 | Cn1nccc1-c1coc2c(C(=O)NCC3CCOCC3)cccc12 | inactive: 7.38% | 
48 | O=S(=O)(c1ccccc1)N(CC1CO1)c1cccc2ccccc12 (stereo unspecified) | inactive: 9.35% | 
49 | CCN1CCN(c2ncc(C(=O)Nc3cc(Cl)c(OC)cc3OC)c3ccccc23)CC1 | inactive: -26.6% | 
50 | CCOC(=O)C1CCCN(C(=O)c2cc(Nc3ccc(OC)c(OC)c3)nc3ccccc23)C1 (stereo unspecified) | inactive: 15.5% | 
51 | CC(C)(C)NCc1cc(Br)ccc1OC1CCCC1 | inactive: -7.78% | 
52 | COc1ccc(NC(=O)c2cc3c(=O)n4ccccc4nc3n2C)cc1OC | inactive: -3.64% | 
53 | O=C(NCc1cccc(Cl)c1)c1ccc(-n2ccnc2)c2ccoc12 | inactive: -9.77% | 
54 | Cn1c(N2CCOCC2)cc(=O)n(C)c1=O | inactive: 16.6% | 
55 | CN(C)c1ccc(NC2=C(Cl)C(=O)c3ccccc3C2=O)cc1 | inactive: 3.39% | 
56 | Cc1cc[n+](C2=C([O-])c3ccccc3C(=O)/C2=N\S(=O)(=O)c2cccs2)cc1C | inactive: -13.7% | 
57 | COc1ccc(-c2coc3c(C(=O)NC4CCCCC4)cccc23)c(C)c1 | inactive: 21.5% | 
58 | COc1cc(SC)ccc1C(=O)Nc1cc(C)c(OCC(=O)N2CCOCC2)c(C)c1 | inactive: -0.421% | 
59 | CCOc1cc(/C=C2\C(=O)N(Cc3ccco3)C(C)=C2C(=O)OC)ccc1O | inactive: -2.09% | 
60 | CCN(CC(=O)NC(C)(C)C)Cc1nc2c(Br)cc(Br)cc2c(=O)[nH]1 | inactive: 6.43% | 
61 | C=CCN(Cc1cn(C)nc1-c1cccc(Cl)c1)C1CCS(=O)(=O)C1 (stereo unspecified) | inactive: 3.02% | 
62 | COc1cc(/C=N/NC(=O)c2cccc(NC(=O)c3ccccc3C)c2)ccc1O | inactive: 14.2% | 
63 | Cc1ccc2c(c1)N(CCC(=O)NCCCN1CCCC1)C(=O)CO2 | inactive: 8.41% | 
64 | C/C(=C\C(=S)Nc1ccccc1)Nc1ccc2ccccc2c1 |  | active: 14.1 µM
65 | O=C(Cc1ccccc1F)NNC(=O)c1cccs1 | inactive: 2.62% | 
66 | N=C1/C(=C/c2coc3ccccc3c2=O)C(=O)N=C2SC(c3ccco3)=NN12 | inactive: -93.7% | 

Row | Compound | growth rescue (activation) | Potency
67 | COc1cc(/C=C2/C(=O)NN(c3cccc(C)c3)C2=O)ccc1OC(=O)c1ccco1 | inactive: -5.2% | 
68 | C=CCN(CC=C)CCOc1ccc(OC(C)C)cc1 | inactive: 0.848% | 
69 | CCOC(=O)CN1C(=O)S/C(=C/c2ccc(OCc3ccc(C(=O)O)cc3)cc2)C1=O | inactive: 17.3% | 
70 | COC(=O)C1=C(C(=O)c2ccccc2)C(c2ccccc2)n2nnnc2N1 (stereo unspecified) | inactive: -1.96% | 
71 | CCOc1ccc(C(=O)N2CCCC(c3nc(-c4cccs4)no3)C2)cc1 (stereo unspecified) | inactive: 7.24% | 
72 | N#Cc1c(-c2ccccc2)nc(SCc2ccc(Cl)cc2)[nH]c1=O | inactive: 3.38% | 
73 | CCCc1ccc(-c2cc(C(=O)Nc3ccc([N+](=O)[O-])cn3)c3ccccc3n2)cc1 | inactive: 6.89% | 
74 | O=C(C1CCCO1)N1CCN(C(=S)Nc2ccccc2)CC1 (stereo unspecified) | inactive: -22.6% | 
75 | COc1cc(CC(=O)Nc2ccc3c(c2)CCC3)cc(OC)c1OC | inactive: 8.52% | 
76 | O=C(CNC(=O)c1cccs1)c1ccc(Br)cc1 | inactive: 19.3% | 
77 | O=C(NNc1c(F)c(F)cc(F)c1F)c1ccc(Cl)nc1 | inactive: 14.1% | 
78 | CC1(C)OC(=O)N(CCC(=O)Nc2cccc(F)c2)C1(C)O (stereo unspecified) | inactive: -6.57% | 
79 | CC(CNS(=O)(=O)c1ccccc1)Sc1ncccn1 (stereo unspecified) | inactive: 11.2% | 
80 | COc1ccc(OC)c(NC(=O)CN(Cc2ccc(F)cc2)C2CCCCC2)c1 | inactive: 1.17% | 
81 | O=C(CSCc1c(F)cccc1Cl)NCc1ccncc1 | inactive: 8.78% | 
82 | CC(C)NC(=O)NC(=O)CSc1ccc(S(=O)(=O)N2CCCC2)cn1 | inactive: 2.25% | 
83 | CCOc1ccc(NC(=O)NC(C)CC)cc1 (stereo unspecified) | inactive: -14.3% | 
84 | Cc1ccc(C(=O)NC(=S)NCC2CCCO2)cc1[N+](=O)[O-] (stereo unspecified) | inactive: 11.9% | 
85 | Cc1ncc(CO)c(/C=N/NC(=O)c2cc3c(s2)CCCC3)c1O | inactive: 19.5% | 
86 | COc1ccc(OCC(=O)OCC(=O)NC2CCCC2)cc1 | inactive: 3.82% | 
87 | O=C(COc1ccc(-n2cnnn2)cc1)Nc1cc(Cl)cc(Cl)c1 | inactive: -4.78% | 
88 | Cn1c(N)c(C(=O)CSc2nc3ccccc3c(=O)n2Cc2ccccc2)c(=O)n(C)c1=O | inactive: 18.3% | 

Row | Compound | growth rescue (activation) | Potency
89 | O=C(Nc1ccc(O)cc1)c1ccc2c(c1)C(=O)N(Cc1ccco1)C2=O | inactive: 0.25% | 
90 | CC(C)(C)NC(=O)Cc1ccc(Cl)c(Cl)c1 | inactive: 6.54% | 
91 | Cc1nc2nc3c(c(=O)n2[nH]1)CCCC3 | inactive: 7.56% | 
92 | CCCCN(C)c1c(C)nc2ccc(C(=O)NCCOc3ccc(OC)cc3)cn12 | inactive: 9.67% | 
93 | CCC(=O)N1CCc2cc(S(=O)(=O)N3CCc4ccccc43)ccc21 | inactive: 21.6% | 
94 | Clc1ccccc1Nc1nnc(-c2ccncc2)s1 | inactive: -11.4% | 
95 | Cc1cc([N+](=O)[O-])nn1CC(=O)NC1CCCCC1 | inactive: 1.83% | 
96 | Cc1ccc(S(=O)(=O)N2CCOCC2)cc1C(=O)NCCN1C(=O)S/C(=C\c2ccccc2Cl)C1=O | inactive: 2.24% | 
97 | CCOc1ccc(N(CC(=O)OC)S(=O)(=O)c2ccc(OC)c(OC)c2)cc1 | inactive: -1.51% | 
98 | Cc1ccc(C)c(-n2c(=O)c(C#N)cc3c(=O)n4ccccc4nc32)c1 | inactive: -9.43% | 
99 | CCCc1nc(NCc2ccccc2)c(C#N)c2c1CCCC2 | inactive: 5.14% | 
100 | O=C(c1ccccc1)N1CCCCCC1 | inactive: 15.4% | 
101 | O=C(NCC(c1ccco1)N1CCCC1)c1ccc(-n2cccn2)cc1 (stereo unspecified) | inactive: -11.4% | 
102 | COc1cccc(/C=N/NC(=O)c2ccc(N3CCCC3=O)cc2)c1 | inactive: 8.86% | 
103 | CCCS(=O)(=O)C(=C1NCCO1)S(=O)(=O)CCC | inactive: -23.6% | 
104 | CC(NS(=O)(=O)c1ccc2c(c1)OCCCO2)C(=O)O (stereo unspecified) | inactive: -4.64% | 
105 | O=c1cc(CN2CCN(S(=O)(=O)/C=C/c3ccccc3)CC2)c2ccc(O)cc2o1 | inactive: 15.8% | 
106 | Cc1ccc(C(=O)NCCNc2nc3cc(C)c(C)cc3cc2C)cc1 | inactive: 12% | 

Source: PubChem BioAssay AID1347073 (National Center for Advancing Translational Sciences (NCATS), 2019)
